Measured values: a collection of fitness landscapes (doi:10.1126/science.1257360)
The list shows a part of the results.

B1: PhoQ; a variant is named by its letters at X, in order, P23837 (parent)
chain: MKKLLRLFFPLSLRVRFLLATAAVVLVLSLAYGMVALIGYSVSFDKTTFRLLRGESNLFYTLAKWENNKLHVELPENIDKQSPTMTLIYDENGQLLWAQRDVPWLMKMIQPDWLKSNGFHEIEADVNDTSLLLSGDHSIQQQLQEVREDDDDAEMTHSVAVNVYPATSRMPKLTIVVVDTIPVELKSSYMVWSWFIYVLSANLLLVIPLLWVAAWWSLRPIEALAKEVRELEEHNRELLNPATTRELTSLVRNLNRLLKSERERYDKYRTTLTDLTHSLKTPLXXLQXXLRSLRSEKMSVSDAEPVMLEQISRISQQIGYYLHRASMRGGTLLSRELHPVAPLLDNLTSALNKVYQRKGVNISLDISPEISFVGEQNDFVEVMGNVLDNACKYCLEFVEISARQTDEHLYIVVEDDGPGIPLSKREVIFDRGQRVDTLRPGQGVGLAVAREITEQYEGKIVAGESMLGGARMEVIFGRQHSAPKDE

Variants of: B1
Assay: enrichment ratio after two sorts for PhoP signalling (ratio (wild type AVST 3.29)); higher = more functional
Settings: with PhoP (E. coli)

| Variant | enrichment ratio |
| --- | --- |
| YFNM | ≤ 0.25 |
| VTTR | ≤ 0.25 |
| NQNC | ≤ 0.25 |
| VNQW | ≤ 0.25 |
| HSKH | ≤ 0.25 |
| FQYW | ≤ 0.25 |
| DKAF | ≤ 0.25 |
| YLFH | ≤ 0.25 |
| ASEA | ≤ 0.25 |
| IRRR | ≤ 0.25 |
| NRQP | ≤ 0.25 |
| LPWT | ≤ 0.25 |
| GEDC | ≤ 0.25 |
| DCAN | ≤ 0.25 |
| STSK | 0.472 |
| ICAG | ≤ 0.25 |
| SQII | 7.34 |
| RNVF | ≤ 0.25 |
| FYKT | ≤ 0.25 |
| KEVC | ≤ 0.25 |
| MRVR | ≤ 0.25 |
| GMSS | 1.08 |
| PNKP | ≤ 0.25 |
| PCKL | ≤ 0.25 |
| GCCD | ≤ 0.25 |
| VTKR | ≤ 0.25 |

| Variant | enrichment ratio |
| --- | --- |
| QITH | ≤ 0.25 |
| KVPT | ≤ 0.25 |
| EKPF | ≤ 0.25 |
| LQCW | ≤ 0.25 |
| HVHR | ≤ 0.25 |
| IWPQ | ≤ 0.25 |
| LRHM | ≤ 0.25 |
| HPTR | ≤ 0.25 |
| VSHA | ≤ 0.25 |
| QARF | ≤ 0.25 |
| TIRQ | ≤ 0.25 |
| EPDK | ≤ 0.25 |
| PLVI | ≤ 0.25 |
| GFSI | ≤ 0.25 |
| QMEP | ≤ 0.25 |
| RNTS | ≤ 0.25 |
| YLRL | ≤ 0.25 |
| TWYN | ≤ 0.25 |
| HHNE | ≤ 0.25 |
| SIEL | ≤ 0.25 |
| DFND | ≤ 0.25 |
| AGQG | ≤ 0.25 |
| ILGL | ≤ 0.25 |
| RMHD | ≤ 0.25 |
| REYV | ≤ 0.25 |
| PECR | ≤ 0.25 |

| Variant | enrichment ratio |
| --- | --- |
| GQYF | ≤ 0.25 |
| HEFA | ≤ 0.25 |
| EEVP | ≤ 0.25 |
| DGCG | ≤ 0.25 |
| LCNN | ≤ 0.25 |
| FLTG | ≤ 0.25 |
| LKYT | 0.284 |
| ILAL | ≤ 0.25 |
| DDEN | ≤ 0.25 |
| SMWH | ≤ 0.25 |
| DPFS | ≤ 0.25 |
| TLCM | 1.06 |
| WGEP | ≤ 0.25 |
| PCEA | ≤ 0.25 |
| IEGC | ≤ 0.25 |
| HPIF | ≤ 0.25 |
| ITPN | ≤ 0.25 |
| VEGC | ≤ 0.25 |
| SGLC | 20.7 |
| YISS | 0.549 |
| MTHD | ≤ 0.25 |
| IDLE | ≤ 0.25 |
| IQFY | ≤ 0.25 |
| PIGY | ≤ 0.25 |
| SGTI | 16.7 |
| KQIY | ≤ 0.25 |

| Variant | enrichment ratio |
| --- | --- |
| SGVD | ≤ 0.25 |
| DYKR | ≤ 0.25 |
| YINS | ≤ 0.25 |
| KPWR | ≤ 0.25 |
| TDCC | 12.6 |
| VAHH | 1.34 |
| VICS | ≤ 0.25 |
| GKRF | ≤ 0.25 |
| QDFL | ≤ 0.25 |
| HGKA | ≤ 0.25 |
| ICAW | ≤ 0.25 |
| LMIC | ≤ 0.25 |
| KYNK | ≤ 0.25 |
| HQPA | ≤ 0.25 |
| KQYD | ≤ 0.25 |
| VCYI | ≤ 0.25 |
| QLSI | 0.721 |
| HTMI | 1.06 |
| CNHC | ≤ 0.25 |
| GWQH | ≤ 0.25 |
| MMHE | ≤ 0.25 |
| IETR | ≤ 0.25 |
| PYDI | ≤ 0.25 |
| PTTM | ≤ 0.25 |
| PVIF | ≤ 0.25 |
| IRDS | ≤ 0.25 |

| Variant | enrichment ratio |
| --- | --- |
| RGPC | ≤ 0.25 |
| HFPT | ≤ 0.25 |
| VADV | ≤ 0.25 |
| SVYN | 0.341 |
| GEPG | ≤ 0.25 |
| VGKC | ≤ 0.25 |
| PSDF | 0.39 |
| DHGK | ≤ 0.25 |
| LEHF | ≤ 0.25 |
| TEWR | 6.71 |
| EDFH | ≤ 0.25 |
| FDLR | ≤ 0.25 |
| PKFQ | ≤ 0.25 |
| GGDS | ≤ 0.25 |
| WWSQ | ≤ 0.25 |
| LRNW | ≤ 0.25 |
| AIVD | ≤ 0.25 |
| NWGH | ≤ 0.25 |
| PPVL | ≤ 0.25 |
| FQNW | ≤ 0.25 |
| GQPH | ≤ 0.25 |
| ACCL | 9.91 |
| DSGA | ≤ 0.25 |
| SPRS | ≤ 0.25 |
| MQIR | ≤ 0.25 |
| EMVC | ≤ 0.25 |

| Variant | enrichment ratio |
| --- | --- |
| LQVM | ≤ 0.25 |
| WLMP | ≤ 0.25 |
| DCMQ | ≤ 0.25 |
| GCHG | ≤ 0.25 |
| PVIN | ≤ 0.25 |
| FGGQ | 3.04 |
| WCFP | ≤ 0.25 |
| KFCK | ≤ 0.25 |
| VFTC | ≤ 0.25 |
| ADSA | ≤ 0.25 |
| KMRG | ≤ 0.25 |
| HYGL | ≤ 0.25 |
| VVFM | ≤ 0.25 |
| TFKY | ≤ 0.25 |
| VDKL | ≤ 0.25 |
| REMD | ≤ 0.25 |
| HYYK | ≤ 0.25 |
| NTNP | ≤ 0.25 |
| YVPS | ≤ 0.25 |
| GVVS | ≤ 0.25 |
| PQQS | ≤ 0.25 |
| DAIP | ≤ 0.25 |
| AQDQ | ≤ 0.25 |
